# According to the supplement of paper PMC4604168 (melanoma cell lines):
# The list shows a part of the results. Many values rest on one well or one pass, so single values are uncertain.
# Test system: 501Mel
# Assay: cell count relative to DMSO control; melanoma cells; higher = more viable cells
# Details: library dose: standard library concentration; 72 h
# 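Note: cells treated in 1,536-well plates, then fixed and DAPI-stained, with nuclei counted from automated high-throughput microscope images.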
row,SMILES,cell count
1,"COc1cc2ncnc(Nc3ccc(Oc4ccccc4)cc3)c2cc1OC + C/C(O)=C(\C#N)C(=O)Nc1cc(Br)ccc1Br [LFM-A13] (first compound 10 µM, partner dose 10 µM)",103%
2,"CC(C)C[C@H](NC(=O)[C@H](Cc1ccccc1)NC(=O)c1cnccn1)B(O)O [Bortezomib] + C/C(O)=C(\C#N)C(=O)Nc1cc(Br)ccc1Br [LFM-A13] (first compound 0.005 µM, partner dose 10 µM)",7.73%
3,"Cc1cc([N+](=O)[O-])ccc1NS(=O)(=O)c1cc(Cl)ccc1Cl + O=C(Oc1ccc([N+](=O)[O-])cc1)N1CCC(C(O)(c2ccc3c(c2)OCO3)c2ccc3c(c2)OCO3)CC1 [JZL184] (first compound 5 µM, partner dose 5 µM)",74%
4,"C[C@@H]1CCN(C(=O)CC#N)C[C@@H]1N(C)c1ncnc2[nH]ccc12 + Cc1cc(SCc2sc(-c3ccc(C(F)(F)F)c(F)c3)nc2C)ccc1OCC(=O)O [GW0742] (first compound 5 µM, partner dose 10 µM)",111%
5,"O=C(O)C(=O)Nc1sc2c(c1C(=O)O)CCNC2 + O=C(Oc1ccc([N+](=O)[O-])cc1)N1CCC(C(O)(c2ccc3c(c2)OCO3)c2ccc3c(c2)OCO3)CC1 [JZL184] (first compound 8.33333 µM, partner dose 5 µM)",95.9%
6,"Cn1c(Nc2ccc(C(F)(F)F)cc2)nc2cc(Oc3ccnc(-c4ncc(C(F)(F)F)[nH]4)c3)ccc21 + Cc1cc(SCc2sc(-c3ccc(C(F)(F)F)c(F)c3)nc2C)ccc1OCC(=O)O [GW0742] (first compound 0.4 µM, partner dose 10 µM)",33.9%
7,"Cc1nc(Nc2ncc(C(=O)Nc3c(C)cccc3Cl)s2)cc(N2CCN(CCO)CC2)n1 [dasatanib] + Cc1cc(SCc2sc(-c3ccc(C(F)(F)F)c(F)c3)nc2C)ccc1OCC(=O)O [GW0742] (first compound 0.02 µM, partner dose 10 µM)",80.7%
8,"Oc1cc(-c2nc(-c3ccccc3)[nH]c2-c2ccncc2)ccc1Cl + O=C(Oc1ccc([N+](=O)[O-])cc1)N1CCC(C(O)(c2ccc3c(c2)OCO3)c2ccc3c(c2)OCO3)CC1 [JZL184] (first compound 1 µM, partner dose 5 µM)",67.4%
9,"O=C(O)C(=O)Nc1sc2c(c1C(=O)O)CCNC2 + C/C(O)=C(\C#N)C(=O)Nc1cc(Br)ccc1Br [LFM-A13] (first compound 8.33333 µM, partner dose 10 µM)",118%
10,"O=C(O)c1ccc2c(c1)nc(Nc1cccc(Cl)c1)c1ccncc12 + Cc1cc(SCc2sc(-c3ccc(C(F)(F)F)c(F)c3)nc2C)ccc1OCC(=O)O [GW0742] (first compound 2 µM, partner dose 10 µM)",96.3%
11,"COCC[n+]1c2c(n(Cc3cnccn3)c1C)C(=O)c1ccccc1C2=O + C/C(O)=C(\C#N)C(=O)Nc1cc(Br)ccc1Br [LFM-A13] (first compound 0.002 µM, partner dose 10 µM)",86.6%
12,"CN1CCN(c2ccc3nc(-c4c(N)c5c(F)cccc5[nH]c4=O)[nH]c3c2)CC1 [Dovitinib] + O=C(Oc1ccc([N+](=O)[O-])cc1)N1CCC(C(O)(c2ccc3c(c2)OCO3)c2ccc3c(c2)OCO3)CC1 [JZL184] (first compound 0.5 µM, partner dose 5 µM)",65.5%
13,"Nc1ccn([C@@H]2O[C@H](CO)[C@@H](O)C2(F)F)c(=O)n1 [gemcitabine] + C/C(O)=C(\C#N)C(=O)Nc1cc(Br)ccc1Br [LFM-A13] (first compound 0.002 µM, partner dose 10 µM)",84.7%
14,"C#Cc1cccc(Nc2ncnc3cc(OCCOC)c(OCCOC)cc23)c1 [erlotinib] + C/C(O)=C(\C#N)C(=O)Nc1cc(Br)ccc1Br [LFM-A13] (first compound 4 µM, partner dose 10 µM)",101%
15,"Cc1nc(Nc2ncc(C(=O)Nc3c(C)cccc3Cl)s2)cc(N2CCN(CCO)CC2)n1 [dasatanib] + C/C(O)=C(\C#N)C(=O)Nc1cc(Br)ccc1Br [LFM-A13] (first compound 0.02 µM, partner dose 10 µM)",83.7%
16,"CO[C@H]1C[C@@H]2CC[C@@H](C)[C@@](O)(O2)C(=O)C(=O)N2CCCC[C@H]2C(=O)O[C@H]([C@H](C)C[C@@H]2CC[C@@H](OCCO)[C@H](OC)C2)CC(=O)[C@H](C)/C=C(\C)[C@@H](O)[C@@H](OC)C(=O)[C@H](C)C[C@H](C)/C=C/C=C/C=C/1C [everolimus] + C/C(O)=C(\C#N)C(=O)Nc1cc(Br)ccc1Br [LFM-A13] (first compound 0.1 µM, partner dose 10 µM)",67.3%
17,"O=C1NC(=O)/C(=C/c2ccc(-c3ccc(F)cc3O)o2)S1 + O=C(Oc1ccc([N+](=O)[O-])cc1)N1CCC(C(O)(c2ccc3c(c2)OCO3)c2ccc3c(c2)OCO3)CC1 [JZL184] (first compound 5 µM, partner dose 5 µM)",80.1%

row,SMILES,cell count
1,"COc1ccc(COc2ccc(Cc3cnc(N)nc3N)cc2OC)cc1 + C/C(O)=C(\C#N)C(=O)Nc1cc(Br)ccc1Br [LFM-A13] (first compound 5 µM, partner dose 10 µM)",122%
2,"Oc1cc(-c2nc(-c3ccccc3)[nH]c2-c2ccncc2)ccc1Cl + C/C(O)=C(\C#N)C(=O)Nc1cc(Br)ccc1Br [LFM-A13] (first compound 1 µM, partner dose 10 µM)",81.6%
3,"Oc1nc(-c2ccc(C(F)(F)F)cc2)nc2c1CSCC2 + O=C(Oc1ccc([N+](=O)[O-])cc1)N1CCC(C(O)(c2ccc3c(c2)OCO3)c2ccc3c(c2)OCO3)CC1 [JZL184] (first compound 10 µM, partner dose 5 µM)",65.7%
4,"CN1CCN(c2ccc3nc(-c4c(N)c5c(F)cccc5[nH]c4=O)[nH]c3c2)CC1 [Dovitinib] + C/C(O)=C(\C#N)C(=O)Nc1cc(Br)ccc1Br [LFM-A13] (first compound 0.5 µM, partner dose 10 µM)",62%
5,"O=C(CCCCCCC(=O)Nc1ccccc1)NO [vorinostat] + Cc1cc(SCc2sc(-c3ccc(C(F)(F)F)c(F)c3)nc2C)ccc1OCC(=O)O [GW0742] (first compound 0.4 µM, partner dose 10 µM)",70.1%
6,"COc1ccc(COc2ccc(Cc3cnc(N)nc3N)cc2OC)cc1 + Cc1cc(SCc2sc(-c3ccc(C(F)(F)F)c(F)c3)nc2C)ccc1OCC(=O)O [GW0742] (first compound 5 µM, partner dose 10 µM)",68.8%
7,"Cc1cc(Nc2cc(N3CCN(C)CC3)nc(Sc3ccc(NC(=O)C4CC4)cc3)n2)n[nH]1 [Tozasertib] + O=C(Oc1ccc([N+](=O)[O-])cc1)N1CCC(C(O)(c2ccc3c(c2)OCO3)c2ccc3c(c2)OCO3)CC1 [JZL184] (first compound 0.03 µM, partner dose 5 µM)",94.5%
8,"Cn1c(Nc2ccc(C(F)(F)F)cc2)nc2cc(Oc3ccnc(-c4ncc(C(F)(F)F)[nH]4)c3)ccc21 + O=C(Oc1ccc([N+](=O)[O-])cc1)N1CCC(C(O)(c2ccc3c(c2)OCO3)c2ccc3c(c2)OCO3)CC1 [JZL184] (first compound 0.4 µM, partner dose 5 µM)",33.1%
9,"O=C(CCCCCCC(=O)Nc1ccccc1)NO [vorinostat] + C/C(O)=C(\C#N)C(=O)Nc1cc(Br)ccc1Br [LFM-A13] (first compound 0.4 µM, partner dose 10 µM)",60.1%
10,"Cn1c(Nc2ccc(C(F)(F)F)cc2)nc2cc(Oc3ccnc(-c4ncc(C(F)(F)F)[nH]4)c3)ccc21 + C/C(O)=C(\C#N)C(=O)Nc1cc(Br)ccc1Br [LFM-A13] (first compound 0.4 µM, partner dose 10 µM)",45.9%
11,"C=CCn1c(=O)c2cnc(Nc3ccc(N4CCN(C)CC4)cc3)nc2n1-c1cccc(C(C)(C)O)n1 + O=C(Oc1ccc([N+](=O)[O-])cc1)N1CCC(C(O)(c2ccc3c(c2)OCO3)c2ccc3c(c2)OCO3)CC1 [JZL184] (first compound 0.1 µM, partner dose 5 µM)",62.1%
12,"CC(C)C[C@H](NC(=O)[C@H](Cc1ccccc1)NC(=O)c1cnccn1)B(O)O [Bortezomib] + O=C(Oc1ccc([N+](=O)[O-])cc1)N1CCC(C(O)(c2ccc3c(c2)OCO3)c2ccc3c(c2)OCO3)CC1 [JZL184] (first compound 0.005 µM, partner dose 5 µM)",7.75%
13,"Clc1ccc(Nc2nnc(Cc3ccncc3)c3ccccc23)cc1 [vatalanib] + O=C(Oc1ccc([N+](=O)[O-])cc1)N1CCC(C(O)(c2ccc3c(c2)OCO3)c2ccc3c(c2)OCO3)CC1 [JZL184] (first compound 10 µM, partner dose 5 µM)",65.2%
14,"COc1cc2ncnc(Nc3ccc(Oc4ccccc4)cc3)c2cc1OC + O=C(Oc1ccc([N+](=O)[O-])cc1)N1CCC(C(O)(c2ccc3c(c2)OCO3)c2ccc3c(c2)OCO3)CC1 [JZL184] (first compound 10 µM, partner dose 5 µM)",64.9%
15,"C=CCn1c(=O)c2cnc(Nc3ccc(N4CCN(C)CC4)cc3)nc2n1-c1cccc(C(C)(C)O)n1 + Cc1cc(SCc2sc(-c3ccc(C(F)(F)F)c(F)c3)nc2C)ccc1OCC(=O)O [GW0742] (first compound 0.1 µM, partner dose 10 µM)",73.4%
16,"Nc1ccn([C@@H]2O[C@H](CO)[C@@H](O)C2(F)F)c(=O)n1 [gemcitabine] + O=C(Oc1ccc([N+](=O)[O-])cc1)N1CCC(C(O)(c2ccc3c(c2)OCO3)c2ccc3c(c2)OCO3)CC1 [JZL184] (first compound 0.002 µM, partner dose 5 µM)",88.6%
17,"COc1cc(N2CCC(N3CCN(C)CC3)CC2)ccc1Nc1ncc(Cl)c(Nc2ccccc2S(=O)(=O)C(C)C)n1 + O=C(Oc1ccc([N+](=O)[O-])cc1)N1CCC(C(O)(c2ccc3c(c2)OCO3)c2ccc3c(c2)OCO3)CC1 [JZL184] (first compound 0.4 µM, partner dose 5 µM)",69.6%
